# Measured values reported in paper PMC4745695.
# Chains of the proteins cited; added tags and fusions are not shown. Residues count along the entry.
# UniProt P25911: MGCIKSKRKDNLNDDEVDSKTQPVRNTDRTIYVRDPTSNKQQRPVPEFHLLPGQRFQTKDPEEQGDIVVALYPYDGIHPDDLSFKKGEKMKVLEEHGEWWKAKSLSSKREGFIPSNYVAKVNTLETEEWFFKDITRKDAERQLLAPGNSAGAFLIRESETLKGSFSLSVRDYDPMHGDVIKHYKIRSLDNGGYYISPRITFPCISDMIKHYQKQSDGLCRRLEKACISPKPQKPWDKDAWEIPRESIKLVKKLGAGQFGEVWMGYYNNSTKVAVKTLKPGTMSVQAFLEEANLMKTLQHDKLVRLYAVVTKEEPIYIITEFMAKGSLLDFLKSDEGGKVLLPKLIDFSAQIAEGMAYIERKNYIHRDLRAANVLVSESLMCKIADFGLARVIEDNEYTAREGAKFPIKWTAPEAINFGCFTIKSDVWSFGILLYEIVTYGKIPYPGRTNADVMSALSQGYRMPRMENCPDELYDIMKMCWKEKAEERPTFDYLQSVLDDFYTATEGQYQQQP
# UniProt P05532, residues 25-979: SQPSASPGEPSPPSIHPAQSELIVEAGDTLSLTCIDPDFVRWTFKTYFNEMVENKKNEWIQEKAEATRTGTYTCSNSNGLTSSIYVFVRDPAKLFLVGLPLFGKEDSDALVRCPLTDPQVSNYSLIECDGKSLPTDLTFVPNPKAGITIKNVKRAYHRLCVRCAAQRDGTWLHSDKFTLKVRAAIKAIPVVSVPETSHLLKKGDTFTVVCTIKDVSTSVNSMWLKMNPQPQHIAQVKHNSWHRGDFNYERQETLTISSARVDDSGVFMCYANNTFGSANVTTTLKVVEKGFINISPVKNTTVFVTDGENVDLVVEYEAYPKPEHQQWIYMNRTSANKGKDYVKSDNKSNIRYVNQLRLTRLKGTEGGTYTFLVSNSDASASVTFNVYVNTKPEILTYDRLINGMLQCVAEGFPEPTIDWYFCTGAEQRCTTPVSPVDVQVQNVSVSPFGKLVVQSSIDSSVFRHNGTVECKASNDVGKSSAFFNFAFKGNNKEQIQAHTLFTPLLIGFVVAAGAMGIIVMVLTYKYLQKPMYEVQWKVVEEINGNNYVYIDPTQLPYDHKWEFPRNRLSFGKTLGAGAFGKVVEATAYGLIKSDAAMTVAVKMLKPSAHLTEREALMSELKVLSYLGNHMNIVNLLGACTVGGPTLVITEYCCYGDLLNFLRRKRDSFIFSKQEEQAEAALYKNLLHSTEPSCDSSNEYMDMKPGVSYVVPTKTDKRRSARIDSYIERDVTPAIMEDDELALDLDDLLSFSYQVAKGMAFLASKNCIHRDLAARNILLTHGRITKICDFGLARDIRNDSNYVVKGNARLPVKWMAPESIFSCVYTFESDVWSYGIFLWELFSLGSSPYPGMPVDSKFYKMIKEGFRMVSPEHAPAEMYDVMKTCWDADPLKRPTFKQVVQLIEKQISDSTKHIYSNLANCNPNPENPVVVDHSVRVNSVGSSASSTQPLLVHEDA
# UniProt P10721, residues 26-976: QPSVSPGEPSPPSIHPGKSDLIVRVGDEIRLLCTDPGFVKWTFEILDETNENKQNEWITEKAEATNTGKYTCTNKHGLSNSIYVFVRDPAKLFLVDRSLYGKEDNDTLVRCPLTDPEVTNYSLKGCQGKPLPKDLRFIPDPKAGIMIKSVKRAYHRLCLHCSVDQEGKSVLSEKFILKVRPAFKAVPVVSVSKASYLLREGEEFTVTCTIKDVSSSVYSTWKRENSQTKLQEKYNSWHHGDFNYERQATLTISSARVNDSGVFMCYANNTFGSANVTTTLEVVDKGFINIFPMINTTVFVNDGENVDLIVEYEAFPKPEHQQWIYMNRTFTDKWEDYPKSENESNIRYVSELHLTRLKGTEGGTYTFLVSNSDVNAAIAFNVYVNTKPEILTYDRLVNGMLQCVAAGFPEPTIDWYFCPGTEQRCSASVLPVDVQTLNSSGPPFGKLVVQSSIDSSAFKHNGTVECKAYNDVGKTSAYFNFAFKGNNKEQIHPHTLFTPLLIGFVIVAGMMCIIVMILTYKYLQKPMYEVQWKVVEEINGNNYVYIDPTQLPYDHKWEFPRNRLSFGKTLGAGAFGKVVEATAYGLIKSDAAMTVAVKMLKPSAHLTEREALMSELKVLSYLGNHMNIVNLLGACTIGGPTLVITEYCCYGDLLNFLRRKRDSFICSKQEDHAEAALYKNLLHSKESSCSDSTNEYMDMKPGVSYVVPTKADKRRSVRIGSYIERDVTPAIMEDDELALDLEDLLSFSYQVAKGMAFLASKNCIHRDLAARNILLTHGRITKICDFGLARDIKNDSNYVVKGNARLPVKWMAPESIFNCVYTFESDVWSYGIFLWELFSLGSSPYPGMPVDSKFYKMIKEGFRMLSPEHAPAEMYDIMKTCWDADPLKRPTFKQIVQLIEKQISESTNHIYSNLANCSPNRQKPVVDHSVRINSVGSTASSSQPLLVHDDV
# No constants are given. Whether binding was seen depends on the method and setting. In cells and extracts the contact can be indirect. Some binding calls cover weakened binding; strength is not graded here. For some assays here: Tags and fused reporters may be left off the sequences shown.
# T1: HA-K63W-TAK1 (inactive K63W-TAK1 mutant, from pCMV-HA-K63W-TAK1) (UniProt O43318)
# T1 sequence: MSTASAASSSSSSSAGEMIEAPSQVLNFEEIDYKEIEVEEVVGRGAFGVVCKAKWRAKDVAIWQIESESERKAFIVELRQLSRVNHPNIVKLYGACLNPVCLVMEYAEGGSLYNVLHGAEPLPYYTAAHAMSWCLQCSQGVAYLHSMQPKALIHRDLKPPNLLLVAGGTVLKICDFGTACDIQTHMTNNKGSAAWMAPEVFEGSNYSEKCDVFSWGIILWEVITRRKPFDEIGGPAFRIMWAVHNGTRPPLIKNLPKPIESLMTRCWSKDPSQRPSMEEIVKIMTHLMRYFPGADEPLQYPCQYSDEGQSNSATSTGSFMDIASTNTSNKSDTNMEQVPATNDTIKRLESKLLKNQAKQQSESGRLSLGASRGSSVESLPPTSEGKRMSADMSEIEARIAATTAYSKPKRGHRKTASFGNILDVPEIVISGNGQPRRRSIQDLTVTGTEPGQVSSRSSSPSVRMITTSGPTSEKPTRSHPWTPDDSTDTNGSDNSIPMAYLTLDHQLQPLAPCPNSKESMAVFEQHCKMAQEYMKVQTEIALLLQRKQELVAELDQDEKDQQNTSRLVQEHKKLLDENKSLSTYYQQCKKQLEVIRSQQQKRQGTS
# T2: HA-TAK1 (wild type, from pCMV-HA-wt-TAK1) (UniProt O43318)
# T2 sequence: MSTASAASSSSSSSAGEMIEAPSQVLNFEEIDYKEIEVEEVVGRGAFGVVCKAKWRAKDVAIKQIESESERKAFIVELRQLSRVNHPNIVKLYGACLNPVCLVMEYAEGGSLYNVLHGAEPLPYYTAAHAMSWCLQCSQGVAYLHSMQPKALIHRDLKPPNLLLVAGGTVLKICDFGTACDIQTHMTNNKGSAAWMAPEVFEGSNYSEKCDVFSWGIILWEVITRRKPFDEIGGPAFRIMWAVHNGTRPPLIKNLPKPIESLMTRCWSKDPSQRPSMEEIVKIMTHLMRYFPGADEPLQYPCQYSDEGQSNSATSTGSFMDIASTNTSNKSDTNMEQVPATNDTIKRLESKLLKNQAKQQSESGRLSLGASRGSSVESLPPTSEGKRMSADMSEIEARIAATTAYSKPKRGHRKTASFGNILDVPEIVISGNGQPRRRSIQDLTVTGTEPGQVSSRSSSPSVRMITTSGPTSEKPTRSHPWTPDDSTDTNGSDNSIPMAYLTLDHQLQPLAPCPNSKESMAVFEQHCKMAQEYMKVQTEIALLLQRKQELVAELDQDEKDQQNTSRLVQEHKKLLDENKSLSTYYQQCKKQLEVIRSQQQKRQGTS
# T3: HA-TAK1 (wild type, from pCMV-HA-wt-TAK1), O43318
# T3 chain: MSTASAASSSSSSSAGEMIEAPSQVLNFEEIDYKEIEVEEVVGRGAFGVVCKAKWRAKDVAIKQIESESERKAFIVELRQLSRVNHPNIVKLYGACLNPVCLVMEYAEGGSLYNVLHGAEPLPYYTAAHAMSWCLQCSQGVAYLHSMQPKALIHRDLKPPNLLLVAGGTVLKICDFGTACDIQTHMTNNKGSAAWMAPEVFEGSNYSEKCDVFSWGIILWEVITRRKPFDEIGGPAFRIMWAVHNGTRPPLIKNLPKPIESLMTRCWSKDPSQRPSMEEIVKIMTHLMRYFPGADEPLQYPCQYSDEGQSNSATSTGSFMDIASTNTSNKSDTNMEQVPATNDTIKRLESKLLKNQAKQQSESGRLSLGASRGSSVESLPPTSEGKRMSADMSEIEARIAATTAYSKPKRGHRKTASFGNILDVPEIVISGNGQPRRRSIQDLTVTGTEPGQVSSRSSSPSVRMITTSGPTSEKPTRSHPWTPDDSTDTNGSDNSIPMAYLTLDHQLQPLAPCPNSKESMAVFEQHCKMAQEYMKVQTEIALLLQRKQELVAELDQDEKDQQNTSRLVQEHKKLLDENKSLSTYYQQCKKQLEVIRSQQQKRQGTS
# What was measured:
# [1] = biological target: T1, HA-K63W-TAK1 (inactive K63W-TAK1 mutant, from pCMV-HA-K63W-TAK1); test: co-IP; HEK293T transfected with HA-wt-TAK1 or K63W-TAK1 alone or together with c-Kit; TAK1-specific immunoprecipitation (protein-G sepharose, lysis buffer with 0,5% NP40), western blot (Figure 6E)
# [2] = biological target: T2, HA-TAK1 (wild type, from pCMV-HA-wt-TAK1); test: as above
# [3] = biological target: Lyn (endogenous in bone marrow-derived mast cells) (mouse (endogenous in BMMCs)) (UniProt P25911); test: co-IP; lysates of SCF-stimulated (50 ng/ml) BMMCs; Lyn-specific immunoprecipitation (protein-G sepharose, lysis buffer with 0,5% NP40), western blot (Figure 6C, 6D)
# [4] = biological target: c-Kit (endogenous in bone marrow-derived mast cells) (mouse (endogenous in BMMCs)) (UniProt P05532); test: co-IP; lysates of SCF-stimulated (50 ng/ml) BMMCs; c-Kit-specific immunoprecipitation (protein-G sepharose, lysis buffer with 0,5% NP40), western blot (Figure 6B)
# [5] = biological target: T3, HA-TAK1 (wild type, from …); test: co-IP; HEK293T transfected with HA-wt-TAK1 or K63W-TAK1 alone or together with c-Kit; TAK1-specific immunoprecipitation (protein-G sepharose, lysis buffer with 0,5% NP40), western blot (Figure 6E); details: remark: other sources report otherwise
molecule,measurement,setting,value
c-Kit (overexpressed wt c-Kit from pcDNA3.1-c-Kit) (from UniProt P10721 26-976) (receptor),binding,[1],no binding
same,binding,[2],binds
c-Kit (endogenous in bone marrow-derived mast cells) (from UniProt P05532 25-979) (receptor),binding,[3],binds
"TAK1 (endogenous in bone marrow-derived mast cells) (enzyme, UniProt Q62073 1-579) MSTASAASSSSSSSASEMIEAPSQVLNFEEIDYKEIEVEEVVGRGAFGVVCKAKWRAKDVAIKQIESESERKAFIVELRQLSRVNHPNIVKLYGACLNPVCLVMEYAEGGSLYNVLHGAEPLPYYTAAHAMSWCLQCSQGVAYLHSMQPKALIHRDLKPPNLLLVAGGTVLKICDFGTACDIQTHMTNNKGSAAWMAPEVFEGSNYSEKCDVFSWGIILWEVITRRKPFDEIGGPAFRIMWAVHNGTRPPLIKNLPKPIESLMTRCWSKDPSQRPSMEEIVKIMTHLMRYFPGADEPLQYPCQYSDEGQSNSATSTGSFMDIASTNTSNKSDTNMEQVPATNDTIKRLESKLLKNQAKQQSESGRLSLGASRGSSVESLPPTSEGKRMSADMSEIEARIVATAGNGQPRRRSIQDLTVTGTEPGQVSSRSSSPSVRMITTSGPTSEKPARSHPWTPDDSTDTNGSDNSIPMAYLTLDHQLQPLAPCPNSKESMAVFEQHCKMAQEYMKVQTEIALLLQRKQELVAELDQDEKDQQNTSRLVQEHKKLLDENKSLSTYYQQCKKQLEVIRSQQQKRQGTS",binding,[4],binds
same,binding,[3],binds
"IKK2 (endogenous in HEK293T cells), O14920 1-756 (enzyme) MSWSPSLTTQTCGAWEMKERLGTGGFGNVIRWHNQETGEQIAIKQCRQELSPRNRERWCLEIQIMRRLTHPNVVAARDVPEGMQNLAPNDLPLLAMEYCQGGDLRKYLNQFENCCGLREGAILTLLSDIASALRYLHENRIIHRDLKPENIVLQQGEQRLIHKIIDLGYAKELDQGSLCTSFVGTLQYLAPELLEQQKYTVTVDYWSFGTLAFECITGFRPFLPNWQPVQWHSKVRQKSEVDIVVSEDLNGTVKFSSSLPYPNNLNSVLAERLEKWLQLMLMWHPRQRGTDPTYGPNGCFKALDDILNLKLVHILNMVTGTIHTYPVTEDESLQSLKARIQQDTGIPEEDQELLQEAGLALIPDKPATQCISDGKLNEGHTLDMDLVFLFDNSKITYETQISPRPQPESVSCILQEPKRNLAFFQLRKVWGQVWHSIQTLKEDCNRLQQGQRAAMMNLLRNNSCLSKMKNSMASMSQQLKAKLDFFKTSIQIDLEKYSEQTEFGITSDKLLLAWREMEQAVELCGRENEVKLLVERMMALQTDIVDLQRSPMGRKQGGTLDDLEEQARELYRRLREKPRDQRTEGDSQEMVRLLLQAIQSFEKKVRVIYTQLSKTVVCKQKALELLPKVEEVVSLMNEDEKTVVRLQEKRQKELWNLLKIACSKVRGPVSGSPDSMNASRLSQPGQLMSQPSTASNSLPEPAKKSEELVAEAHNLCTLLENAIQDTVREQDQSFTALDWSWLQTEEEEHSCLEQAS",binding,[5],binds
"IKK2 (endogenous in bone marrow-derived mast cells) (enzyme, UniProt O88351 1-757) MSWSPSLPTQTCGAWEMKERLGTGGFGNVIRWHNQATGEQIAIKQCRQELSPKNRNRWCLEIQIMRRLNHPNVVAARDVPEGMQNLAPNDLPLLAMEYCQGGDLRRYLNQFENCCGLREGAVLTLLSDIASALRYLHENRIIHRDLKPENIVLQQGEKRLIHKIIDLGYAKELDQGSLCTSFVGTLQYLAPELLEQQKYTVTVDYWSFGTLAFECITGFRPFLPNWQPVQWHSKVRQKSEVDIVVSEDLNGAVKFSSSLPFPNNLNSVLAERLEKWLQLMLMWHPRQRGTDPQYGPNGCFRALDDILNLKLVHVLNMVTGTVHTYPVTEDESLQSLKTRIQENTGILETDQELLQKAGLVLLPDKPATQCISDSKTNEGLTLDMDLVFLLDNSKINYETQITPRPPPESVSCILQEPKRNLSFFQLRKVWGQVWHSIQTLKEDCNRLQQGQRAAMMSLLRNNSCLSKMKNAMASTAQQLKAKLDFFKTSIQIDLEKYKEQTEFGITSDKLLLAWREMEQAVEQCGRENDVKHLVERMMALQTDIVDLQRSPMGRKQGGTLDDLEEQARELYRKLREKPRDQRTEGDSQEMVRLLLQAIQSFEKKVRVIYTQLSKTVVCKQKALELLPKVEEVVSLMNEDERTVVRLQEKRQKELWNLLKIACSKVRGPVSGSPDSMNVSRLSHPGQLMSQPSSACDSLPESDKKSEELVAEAHALCSRLESALQDTVKEQDRSFTTLDWSWLQMEDEERCSLEQACD",binding,[3],no binding
"IKK2 (endogenous in HEK293T cells) (enzyme, UniProt O14920 1-756) MSWSPSLTTQTCGAWEMKERLGTGGFGNVIRWHNQETGEQIAIKQCRQELSPRNRERWCLEIQIMRRLTHPNVVAARDVPEGMQNLAPNDLPLLAMEYCQGGDLRKYLNQFENCCGLREGAILTLLSDIASALRYLHENRIIHRDLKPENIVLQQGEQRLIHKIIDLGYAKELDQGSLCTSFVGTLQYLAPELLEQQKYTVTVDYWSFGTLAFECITGFRPFLPNWQPVQWHSKVRQKSEVDIVVSEDLNGTVKFSSSLPYPNNLNSVLAERLEKWLQLMLMWHPRQRGTDPTYGPNGCFKALDDILNLKLVHILNMVTGTIHTYPVTEDESLQSLKARIQQDTGIPEEDQELLQEAGLALIPDKPATQCISDGKLNEGHTLDMDLVFLFDNSKITYETQISPRPQPESVSCILQEPKRNLAFFQLRKVWGQVWHSIQTLKEDCNRLQQGQRAAMMNLLRNNSCLSKMKNSMASMSQQLKAKLDFFKTSIQIDLEKYSEQTEFGITSDKLLLAWREMEQAVELCGRENEVKLLVERMMALQTDIVDLQRSPMGRKQGGTLDDLEEQARELYRRLREKPRDQRTEGDSQEMVRLLLQAIQSFEKKVRVIYTQLSKTVVCKQKALELLPKVEEVVSLMNEDEKTVVRLQEKRQKELWNLLKIACSKVRGPVSGSPDSMNASRLSQPGQLMSQPSTASNSLPEPAKKSEELVAEAHNLCTLLENAIQDTVREQDQSFTALDWSWLQTEEEEHSCLEQAS",binding,[1],no binding
